Reference: patent publication US20250333542A1 (Hoffmann-La Roche, published 2025)
Blank lines part the entries; values can stand above or below the binder they belong to.

Tests used:
[1] = biological target: T1, Fc (kih)-IFNGR1/2 heterodimer (P1AF8126) (UniProt P15260 18-245; P38484 28-247, limits assumed); assay: SPR, compound immobilised, Fc(kih)-IFNGR1/2 heterodimer as analyte; apparent affinity
T1 construct: Used as the soluble analyte in SPR; also called Fc (kih)-IFNGR1/R2 heterodimer; IFNGR1/R2; not shown: Fc (kih) chain
T1 sequence (looked up) 1: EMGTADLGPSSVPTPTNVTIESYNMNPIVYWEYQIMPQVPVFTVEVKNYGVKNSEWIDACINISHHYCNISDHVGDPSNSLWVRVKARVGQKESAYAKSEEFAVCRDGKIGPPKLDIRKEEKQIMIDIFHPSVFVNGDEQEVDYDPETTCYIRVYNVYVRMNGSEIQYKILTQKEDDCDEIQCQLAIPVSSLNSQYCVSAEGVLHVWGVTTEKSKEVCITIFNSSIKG
T1 sequence (looked up) 2: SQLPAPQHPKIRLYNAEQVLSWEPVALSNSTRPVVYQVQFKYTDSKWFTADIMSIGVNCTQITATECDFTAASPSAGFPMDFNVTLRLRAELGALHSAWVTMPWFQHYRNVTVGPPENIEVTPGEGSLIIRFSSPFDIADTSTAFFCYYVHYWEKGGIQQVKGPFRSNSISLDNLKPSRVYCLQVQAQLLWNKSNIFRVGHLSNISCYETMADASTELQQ
Protocol: (§1) The binding behaviour of IFNG variants towards IFNGR1 and IFNGR1/2 was assessed by surface plasmon resonance (SPR). SPR experiments were performed on a Biacore 8K device at 25° C. with HBS-EP as running buffer (0.01 M HEPES pH 7.4, 0.15 M NaCl, 3 mM EDTA, 0.005% Surfactant P20, Biacore, Freiburg/Germany). […] IFNG mutation series compounds were immobilised at a concentration of 25 nM, 80 s contact time and 10 μL/min. Immobilisation levels up to 450 resonance units (RU) were used. Subsequently, decreasing concentrations (800-3.13 nM) of Fc (kih)-IFNGR1 monomer or Fc (kih)-IFNGR1/2 heterodimer were injected as a second analyte with a flow rate of 30 μL/min over 120 seconds and dissociation was monitored for 500 s. Bulk refractive index differences were corrected for by subtracting the response obtained in a reference flow cell, where no protein was immobilised. The affinity constants were derived from the rate constants by fitting to a 1:1 Langmuir binding.
(§2) To measure binding affinities, compounds of the mutation series were immobilised in the flow cell. As a second analyte Fc (kih)-IFNGR1 monomer or Fc (kih)-IFNGR1/R2 heterodimer were passed through the flow cell and binding affinities (KD) were calculated based on observed association and dissociation constants. Already single point mutations reduced the apparent binding affinities towards the receptors compared to the compound with C-terminal KRKRP.

[2] = biological target: T2, Fc (kih)-IFNGR1 monomer (P1AF7104) (UniProt P15260 18-245); assay: SPR, compound immobilised, Fc(kih)-IFNGR1 monomer as analyte; apparent affinity
T2 construct: Used as the soluble analyte in SPR; not shown: Fc (kih) part
T2 sequence (P15260 whole entry, species assumed, looked up): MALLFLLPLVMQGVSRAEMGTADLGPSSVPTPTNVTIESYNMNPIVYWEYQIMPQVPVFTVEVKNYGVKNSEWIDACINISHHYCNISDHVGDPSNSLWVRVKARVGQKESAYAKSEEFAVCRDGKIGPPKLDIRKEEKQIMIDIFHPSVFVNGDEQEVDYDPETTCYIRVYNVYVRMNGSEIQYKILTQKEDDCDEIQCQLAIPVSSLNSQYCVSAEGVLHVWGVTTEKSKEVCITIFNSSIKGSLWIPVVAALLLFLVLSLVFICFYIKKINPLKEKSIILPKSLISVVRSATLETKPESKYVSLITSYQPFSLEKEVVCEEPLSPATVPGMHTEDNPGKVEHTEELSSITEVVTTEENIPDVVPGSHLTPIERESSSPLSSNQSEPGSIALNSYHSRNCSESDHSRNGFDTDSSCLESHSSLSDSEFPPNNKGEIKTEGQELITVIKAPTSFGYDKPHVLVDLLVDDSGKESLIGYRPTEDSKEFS
Protocol: as §1, §2

Kd [1]: 864 nM | Kd [2]: 4560 nM
B1: P1AF9474 (anti-FAP 4B9 IgG-IFNG, C-terminus AKTGKSKSP) (other)
heavy: EVQLLESGGGLVQPGGSLRLSCAASGFTFSSYAMSWVRQAPGKGLEWVSAIIGSGASTYYADSVKGRFTISRDNSKNTLYLQMNSLRAEDTAVYYCAKGWFGGFNYWGQGTLVTVSSASTKGPSVFPLAPSSKSTSGGTAALGCLVKDYFPEPVTVSWNSGALTSGVHTFPAVLQSSGLYSLSSVVTVPSSSLGTQTYICNVNHKPSNTKVDKKV[human IgG1 Fc with changes skipped]GGGGSGGGGSGGGGSQDPYVKEAENLKKYFNAGHSDVADNGTLFLGILKNWKEESDRKIMQSQIVSFYFKLFKNFKDDQSIQKSVETIKEDMNVKFFNSNKKKRDDFEKLTNYSVTDLNVQRKAIHELIQVMAELSPAAKTGKSKSP
light: EIVLTQSPGTLSLSPGERATLSCRASQSVTSSYLAWYQQKPGQAPRLLINVGSRRATGIPDRFSGSGSGTDFTLTISRLEPEDFAVYYCQQGIMLPPTFGQGTKVEIKRTVAAPSVFIFPPSDEQLKSGTASVVCLLNNFYPREAKVQWKVDNALQSGNSQESVTEQDSKDSTYSLSSTLTLSKADYEKHKVYACEVTHQGLSSPVTKSFNRGEC
notes: Antibody-cytokine fusion, IgG1 P329G LALA, (G4S)3 linker; S in positions 2 and 4 of KRKR

Kd [1]: 431 nM | Kd [2]: 597 nM
B2: P1AF9465 (anti-FAP 4B9 IgG-IFNG, C-terminus AKTGKRSRP) (other)
heavy: EVQLLESGGGLVQPGGSLRLSCAASGFTFSSYAMSWVRQAPGKGLEWVSAIIGSGASTYYADSVKGRFTISRDNSKNTLYLQMNSLRAEDTAVYYCAKGWFGGFNYWGQGTLVTVSSASTKGPSVFPLAPSSKSTSGGTAALGCLVKDYFPEPVTVSWNSGALTSGVHTFPAVLQSSGLYSLSSVVTVPSSSLGTQTYICNVNHKPSNTKVDKKV[human IgG1 Fc with changes skipped]GGGGSGGGGSGGGGSQDPYVKEAENLKKYFNAGHSDVADNGTLFLGILKNWKEESDRKIMQSQIVSFYFKLFKNFKDDQSIQKSVETIKEDMNVKFFNSNKKKRDDFEKLTNYSVTDLNVQRKAIHELIQVMAELSPAAKTGKRSRP
light: B1 light
notes: Antibody-cytokine fusion, IgG1 P329G LALA, (G4S)3 linker; S in position 3 of KRKR

Kd [1]: 1150 nM | Kd [2]: 3260 nM
B3: P1AF9484 (anti-FAP 4B9 IgG-IFNG, C-terminus AKTGKEKRP) (other)
heavy: EVQLLESGGGLVQPGGSLRLSCAASGFTFSSYAMSWVRQAPGKGLEWVSAIIGSGASTYYADSVKGRFTISRDNSKNTLYLQMNSLRAEDTAVYYCAKGWFGGFNYWGQGTLVTVSSASTKGPSVFPLAPSSKSTSGGTAALGCLVKDYFPEPVTVSWNSGALTSGVHTFPAVLQSSGLYSLSSVVTVPSSSLGTQTYICNVNHKPSNTKVDKKV[human IgG1 Fc with changes skipped]GGGGSGGGGSGGGGSQDPYVKEAENLKKYFNAGHSDVADNGTLFLGILKNWKEESDRKIMQSQIVSFYFKLFKNFKDDQSIQKSVETIKEDMNVKFFNSNKKKRDDFEKLTNYSVTDLNVQRKAIHELIQVMAELSPAAKTGKEKRP
light: B1 light
notes: Antibody-cytokine fusion, IgG1 P329G LALA, (G4S)3 linker; E in position 2 of KRKR

Kd [1]: 885 nM | Kd [2]: 1080 nM
B4: P1AF9472 (anti-FAP 4B9 IgG-IFNG, C-terminus AKTGKRSSP) (other)
heavy: EVQLLESGGGLVQPGGSLRLSCAASGFTFSSYAMSWVRQAPGKGLEWVSAIIGSGASTYYADSVKGRFTISRDNSKNTLYLQMNSLRAEDTAVYYCAKGWFGGFNYWGQGTLVTVSSASTKGPSVFPLAPSSKSTSGGTAALGCLVKDYFPEPVTVSWNSGALTSGVHTFPAVLQSSGLYSLSSVVTVPSSSLGTQTYICNVNHKPSNTKVDKKV[human IgG1 Fc with changes skipped]GGGGSGGGGSGGGGSQDPYVKEAENLKKYFNAGHSDVADNGTLFLGILKNWKEESDRKIMQSQIVSFYFKLFKNFKDDQSIQKSVETIKEDMNVKFFNSNKKKRDDFEKLTNYSVTDLNVQRKAIHELIQVMAELSPAAKTGKRSSP
light: B1 light
notes: Antibody-cytokine fusion, IgG1 P329G LALA, (G4S)3 linker; S in positions 3 and 4 of KRKR

Kd [1]: 1080 nM | Kd [2]: 3160 nM
B5: P1AF9483 (anti-FAP 4B9 IgG-IFNG, C-terminus AKTGERKRP) (other)
heavy: EVQLLESGGGLVQPGGSLRLSCAASGFTFSSYAMSWVRQAPGKGLEWVSAIIGSGASTYYADSVKGRFTISRDNSKNTLYLQMNSLRAEDTAVYYCAKGWFGGFNYWGQGTLVTVSSASTKGPSVFPLAPSSKSTSGGTAALGCLVKDYFPEPVTVSWNSGALTSGVHTFPAVLQSSGLYSLSSVVTVPSSSLGTQTYICNVNHKPSNTKVDKKV[human IgG1 Fc with changes skipped]GGGGSGGGGSGGGGSQDPYVKEAENLKKYFNAGHSDVADNGTLFLGILKNWKEESDRKIMQSQIVSFYFKLFKNFKDDQSIQKSVETIKEDMNVKFFNSNKKKRDDFEKLTNYSVTDLNVQRKAIHELIQVMAELSPAAKTGERKRP
light: B1 light
notes: Antibody-cytokine fusion, IgG1 P329G LALA, (G4S)3 linker; E in position 1 of KRKR

Kd [1]: 312 nM | Kd [2]: 539 nM
B6: P1AF9477 (anti-FAP 4B9 IgG-IFNG, C-terminus AKTGKRPRP) (other)
heavy: EVQLLESGGGLVQPGGSLRLSCAASGFTFSSYAMSWVRQAPGKGLEWVSAIIGSGASTYYADSVKGRFTISRDNSKNTLYLQMNSLRAEDTAVYYCAKGWFGGFNYWGQGTLVTVSSASTKGPSVFPLAPSSKSTSGGTAALGCLVKDYFPEPVTVSWNSGALTSGVHTFPAVLQSSGLYSLSSVVTVPSSSLGTQTYICNVNHKPSNTKVDKKV[human IgG1 Fc with changes skipped]GGGGSGGGGSGGGGSQDPYVKEAENLKKYFNAGHSDVADNGTLFLGILKNWKEESDRKIMQSQIVSFYFKLFKNFKDDQSIQKSVETIKEDMNVKFFNSNKKKRDDFEKLTNYSVTDLNVQRKAIHELIQVMAELSPAAKTGKRPRP
light: B1 light
notes: Antibody-cytokine fusion, IgG1 P329G LALA, (G4S)3 linker; P in position 3 of KRKR

Kd [1]: 535 nM | Kd [2]: 604 nM
B7: P1AF9470 (anti-FAP 4B9 IgG-IFNG, C-terminus AKTGKRKSP) (other)
heavy: EVQLLESGGGLVQPGGSLRLSCAASGFTFSSYAMSWVRQAPGKGLEWVSAIIGSGASTYYADSVKGRFTISRDNSKNTLYLQMNSLRAEDTAVYYCAKGWFGGFNYWGQGTLVTVSSASTKGPSVFPLAPSSKSTSGGTAALGCLVKDYFPEPVTVSWNSGALTSGVHTFPAVLQSSGLYSLSSVVTVPSSSLGTQTYICNVNHKPSNTKVDKKV[human IgG1 Fc with changes skipped]GGGGSGGGGSGGGGSQDPYVKEAENLKKYFNAGHSDVADNGTLFLGILKNWKEESDRKIMQSQIVSFYFKLFKNFKDDQSIQKSVETIKEDMNVKFFNSNKKKRDDFEKLTNYSVTDLNVQRKAIHELIQVMAELSPAAKTGKRKSP
light: B1 light
notes: Antibody-cytokine fusion, IgG1 P329G LALA, (G4S)3 linker; S in position 4 of KRKR
